According to ChEMBL document CHEMBL4888484, “Replenishing the malaria drug discovery pipeline: Screening and hit evaluation of the MMV Hit Generation Library 1 (HGL1) against asexual blood stage Plasmodium falciparum ,using a nano luciferase reporter read-out” (2022):
About 540 (0.36%) of roughly 150,000 compounds showed an effect of 50% or more. Some of the results follow.

The compounds below were run on Plasmodium falciparum (assay: Primary screen in NF54 nanoGlo assay, in single point, at 2uM, 72h; a lower Z score goes with more inhibition). Details: timepoint 72 hour.
Format: functional, Erythrocyte

Structure (SMILES)	% Inhibition	Z score
O=C(NC1CCOC(c2ccccc2)C1)NC1COc2ccccc21 (centres undefined)	-14%	2.55
Cn1cc(C(=O)N2CCC(C)(C#N)CC2)ccc1=O	-25%	2.9
O=C(C1CN(c2ncc(C(F)(F)F)cc2Cl)C1)N1CCCC1	38%	-4.9
Cc1cc(NC(=O)CNc2ccc(-c3ccccc3)cc2)on1	-6%	0.81
N/C(=N\O)c1nnn2c1CO[C@H](c1ccccc1Cl)C2	11%	-1.25
COC(=O)N(C)CC(=O)Nc1ccc2c(c1)OC1(CCCCC1)O2	3%	-0.62
c1ccc(COc2cccc(-c3nc4c([nH]3)CCNC4)c2)cc1	4%	-0.7
COc1ccc(-c2noc(-c3cc4n(n3)C[C@@H](c3ccc(F)cc3)OC4)n2)cc1OC	28%	-3.23
COc1ccc(OCC(=O)Nc2noc(-c3ccccc3)n2)cc1	9%	-1.03
COc1ccncc1NC(=O)c1ccc2ccccc2n1	-17%	2.18
O=C(Cc1csc(-c2ccccc2)n1)N1CCC(O)(c2ccccn2)CC1	-7%	1.07
COc1cccc([C@H](CNS(C)(=O)=O)OC)c1	-10%	1.98
Cc1cc(NC(=O)N2CC[C@@H]3OCC(=O)N[C@H]3C2)nn1C1CCCCC1	-6%	1.17
COc1ccc(CCN2CN(S(=O)(=O)c3ccc(C)c(C)c3)c3nc4ccccc4nc32)cc1	3%	-0.48
O=C(CCc1ccc(F)cc1F)NCC[C@H]1CCOC1	-7%	1.16
CC(=O)Nc1c[nH]nc1[C@H]1CCCN(c2nc(C(F)(F)F)cs2)C1	-6%	0.66
Cc1ccc(C(=O)c2nocc2C(=O)c2ccccc2)cc1	-39%	4.56
CCOC(=O)c1cn(Cc2ccc(Cl)cc2)c2nc(C)ccc2c1=O	-29%	3.13
CCOC1CC(CC(=O)Nc2cc(Cl)ccc2-c2nnn[nH]2)C1 (centres undefined)	-4%	0.74
c1ccc(-n2nnnc2NC2CCCCCCC2)cc1	4%	-0.68
Cc1ccc2c(=O)c(C(=O)c3ccc(F)cc3)cn(Cc3ccccc3C)c2n1	-5%	0.65

Structure (SMILES)	% Inhibition	Z score
CC(C(=O)O)c1cccc(NC(=O)C2CCCOC2)c1 (centres undefined)	-10%	1.52
CC(=O)Nc1ccc(-c2noc([C@H]3CCCN(C(=O)c4ccc(C(C)(C)C)cc4)C3)n2)cc1	-5%	0.62
COc1ccc([C@H](C)NC(=O)c2c(C)noc2-c2ccccc2Cl)cc1	-5%	0.73
COc1cccc(-c2nc(C)c(C(=O)Nc3cccc4[nH]ccc34)s2)c1	-1%	0.1
O[C@H]1Cc2ccccc2C12CCN(Cc1nc(-c3ccncc3)no1)CC2	-7%	0.85
C[C@H]1CN(C(=O)c2ccc(Cl)cc2)C[C@]1(O)C1CC1	-8%	1.32
Cc1ccc(S(=O)(=O)N2CCc3c(c4ccccc4n3CC3CC3)C2)cc1	-9%	1.23
Cc1ccc(CN2CCC[C@@]3(CO)CN(c4ncccc4C(N)=O)CC[C@H]23)o1	-7%	0.82
CN(C)c1ncc(CN2CCC[C@H](CS(C)(=O)=O)C2)cn1	4%	-0.68
COc1ccc(-c2ccc(N3CCN(C(=O)CN(C[C@H]4CCCO4)C(=O)CC(C)C)CC3)nn2)c(OC)c1	-8%	0.76
Clc1ccc(Cl)c(-c2ccc(CNCc3ccc4c(c3)OCO4)o2)c1	-10%	1.46
O=C(c1cccc(Cl)c1)N1C[C@@H]2CN(CC3CCC3)C[C@]2(C(=O)O)C1	-7%	1.06
Cc1ccc(C)c(C(=O)NC(C)(C)C)c1	-5%	0.57
CCCc1noc(CN2C(=O)[C@@H]3CCCN3C2=O)n1	0%	0.01
CCCOc1c(Cl)cc(CN2CC[C@H](c3cnn(C)c3)C2)cc1OCC	2%	-0.22
CCCCc1c(C)[nH]c2nc(N(Cc3cccc(OC)c3)C(=O)c3ccc(C)cc3)nn2c1=O	9%	-1.13
Cc1cnc(=O)n(CC(=O)N2CCN(c3ccccc3F)CC2)c1	-1%	0.07
Cc1nc(C)c(C(=O)N2C[C@H]3CN(Cc4ccccc4)C[C@@]3(CN(C)C)C2)s1	-12%	1.62
CCN(CCCCO)C(=O)Nc1ccc(C)c(OC)c1	-2%	0.2
CN(C)c1ccc(NC(=O)N(Cc2ccco2)C[C@H]2CCCO2)cn1	-3%	0.51
COc1ccc(C(=O)N2C[C@@H]3CC[C@H]2CN(Cc2ccccn2)C3)o1	8%	-1.51
